Reference: PubChem BioAssay AID504466 (National Center for Advancing Translational Sciences (NCATS), 2011)
The whole screen tested about 330,000 compounds, of which about 4,200 (1.3%) were called active. This list was built around the results that the source calls inconclusive (neither active nor inactive); the mix of calls is not that of the screen. Calls follow the shape of the dose curve; as a rule, active = well fitted activation curve with a large enough effect; inconclusive = small, poorly fitted or top-dose-only effect; inactive = no such curve, though single readings can be large or run the other way. Potencies of inconclusive entries are doubtful fits and often do not repeat.

Experiment: qHTS screen for small molecules that induce genotoxicity in human embryonic kidney (HEK293T) cells expressing luciferase-tagged ELG1; also: nearly all actives have a fitted effect of over 60% in size
Conditions: HEK293T ELG1-luciferase reporter, luminescence, 16 h; series mostly up to 46 µM
Excerpt: NIH Molecular Libraries Probe Production Network [MLPCN] NIH Chemical Genomics Center [NCGC] MLPCN Grant: 1 R03 MH092164-01 Assay Provider: Kyungjae Myung, NHGRI, NIH Keywords: MLPCN, qHTS, NCGC, genotoxicity, cancer Assay Overview: Cancer cells divide rapidly compared to normal cells in the body. During cell division, cancer cells need to duplicate their genome by DNA replication. The failure of genome duplication leads to cancer cells' death. Therefore, inhibitors of DNA replication could specifically kill cancer cells. Based on this concept, many chemotherapeutic agents were developed and have been used to treat cancer patients. However, there are a limited number of agents available in the clinical setting, and some of those that do exist have low efficacy and severe side effects. Therefore, if we can find the compounds that effectively block DNA replication either by directly damaging DNA or by inhibiting other cellular mechanisms, the options for cancer treatment will be broadened. With this in mind, we developed a quantitative high-throughput ELG1-luciferase reporter gene assay. Since the level of human ELG1 protein is enhanced in response to genetic stresses, increases in luciferase activity can be used to identify compounds that cause genetic stress.
Assay Protocol Summary: For genotoxicity screening, 2,000 cells in 5 uL/well were dispensed into white, solid-bottom 1536-well plates using a solenoid-based dispenser. Following transfer of 23 nL compound or DMSO vehicle by a pin tool, the plates were incubated 16 hr at 37 °C and 5% CO2. 5 ul ONE-Glo (Promega) was then added to each plate and following a 30 min incubation at room temperature, luciferase activity was quantified on a ViewLux CCD-based plate reader.
Potency is read from the fitted curve at half-maximal effect; tags tell the direction and shape of the fitted curve.

Row | SMILES | Potency
1 | COc1ccc(NC(=O)NCCC2=CCCCC2)cc1 | inconclusive: 6.51 µM [activator, partial curve, poor fit]
2 | Oc1cccc(Nc2nc(O)c(/C=C3\C=Nc4ccccc43)s2)c1 | inconclusive: 13 µM [activator, partial curve, poor fit]
3 | CC(=O)N1CCc2c(sc(NC(=O)c3ccc([N+](=O)[O-])o3)c2C#N)C1 | inconclusive: 18.3 µM [activator, single point]
4 | CN1C(=O)C(O)(c2nnc(-c3ccccc3)o2)c2ccccc21 (stereo not given) | inconclusive: 29.1 µM [activator, partial curve, poor fit]
5 | CCOc1cccc(C(=O)N/N=C/c2ccoc2)c1 | inconclusive: 25.9 µM [activator, single point]
6 | COc1cccc(Oc2ccc3nnc(C(F)(F)F)n3n2)c1 | inconclusive: 6.51 µM [activator, partial curve, poor fit]
7 | Cc1ccsc1C(=O)N/N=C/c1ccc2c(c1)OCO2 | active: 2.31 µM
8 | C/C(=N\Nc1cccc2cccnc12)c1ccc(N)cc1 | inconclusive: 23.1 µM [activator, single point]
9 | Cc1ccnc(NC(=O)CNC(=O)c2ccccc2)c1 | inconclusive: 20.6 µM [activator, partial curve]
10 | COc1ccc(OC)cc1 | inactive
11 | O=C(NC1CCCCC1)C(=S)N1CCOCC1 | inactive
12 | CC1C(=O)N2CCCc3cc(NC(=O)C(=O)NCc4cccnc4)cc1c32 (stereo not given) | inconclusive: 23.1 µM [activator, single point]
13 | Cc1nnc(NC(=O)CCC(=O)N2CCN(S(=O)(=O)c3cc([N+](=O)[O-])ccc3C)CC2)s1 | inactive
14 | CCCn1c(=O)c(C(=O)N/N=C/c2ccccc2F)c(O)c2ccccc21 | inconclusive: 14.6 µM [activator, partial curve]
15 | O=C(NCc1ccco1)c1cc2ccc(O)cc2oc1=O | inconclusive: 23.1 µM [activator, partial curve, poor fit]
16 | COc1ccc(NC(=O)Nc2cnccn2)cc1OC | inactive
17 | O=[N+]([O-])c1ccccc1N/N=C\c1ccccc1Cl | inconclusive: 3.26 µM [activator, full curve]
18 | COc1ccc(C(=O)c2ccsc2N)cc1 | inconclusive: 13 µM [activator, partial curve]
19 | CCCOc1ncnc2c1[nH]c1ccc(OC)cc12 | inconclusive: 2.31 µM [activator, partial curve]
20 | Cc1[nH]n(C(N)=S)c(=O)c1N=Nc1ccc2ccccc2c1 | active: 18.3 µM
21 | CCc1ccc(NC(=O)c2cnccn2)cc1 | inconclusive: 2.06 µM [activator, partial curve]
22 | O=C(NC(C(=O)N/N=C/c1ccccc1)c1n[nH]c(=O)c2ccccc12)c1ccccc1 (stereo not given) | inactive
23 | CCOC(=O)c1sc(NC(=O)Nc2cccc(Cl)c2)cc1C | inconclusive: 6.51 µM [activator, partial curve, poor fit]
24 | COc1cccc(C(=O)Nc2ccc(F)cc2F)c1 | inconclusive: 20.6 µM [activator, single point]
25 | OCc1nc2ccccc2n1CCCOc1ccccc1 | inconclusive: 11.2 µM [activator, partial curve, poor fit]

Row | SMILES | Potency
26 | CC(=O)Nc1ccc(NC(=O)Nc2cccc(Cl)c2)cc1 | inconclusive: 18.3 µM [activator, partial curve, poor fit]
27 | CCn1c(O)c(/C=C2\C=Nc3ccccc32)sc1=O | active: 6.51 µM
28 | CCn1c(=O)cc(SCC(=O)N2CCN(c3ccccn3)CC2)c2ccccc21 | inconclusive: 23.1 µM [activator, partial curve, poor fit]
29 | Cc1ccc(/C=C/C(=O)N2CCc3ccccc32)o1 | active: 8.2 µM
30 | COc1ccc2sc(NC(=O)CC(C)C)nc2c1 | active: 18.4 µM
31 | CC(=O)c1cccc(NC(=S)NC(=O)c2ccc(Br)cc2)c1 | inconclusive: 29.1 µM [activator, partial curve, poor fit]
32 | O=Nc1ccc(O)c2ncccc12 | inconclusive: 1.83 µM [activator, partial curve]
33 | Cc1ccccc1-c1nnc(Cc2ccccc2)o1 | inconclusive: 14.6 µM [activator, partial curve]
34 | O=C(NC(=S)Nc1ccccc1)c1cncc(C#Cc2ccccc2)c1 | inactive
35 | O=C(c1ccc(-c2ccccc2)cc1)N1CCC(C(=O)N2CCCC2)CC1 | inactive
36 | Cc1ccccc1-c1nnc(CS(=O)(=O)c2ccccc2)o1 | inconclusive: 3.66 µM [activator, full curve]
37 | C(#Cc1ccc2c(c1)COc1c3ccccc3nn1-2)c1ccccc1 | inconclusive: 7.3 µM [activator, partial curve, poor fit]
38 | CCOc1cc2[nH]c(=S)n(Cc3ccc(C(=O)N4CCN(C)CC4)cc3)c(=O)c2cc1OCC | inconclusive: 25.9 µM [activator, single point]
39 | COc1cc(CN2CCC(C(N)=O)CC2)ccc1OCc1ccccc1 | inconclusive: 20.6 µM [activator, single point]
40 | Fc1ccccc1Nc1nc2ccccc2o1 | active: 2.06 µM
41 | CCOC(=O)c1ccc(NC(=S)Nc2cccc(C)n2)cc1 | inactive
42 | O=C(NCc1cccnc1)C(=O)NCC1CCCO1 (stereo not given) | inactive
43 | Cc1cc(/C=C(\C#N)C(=O)NCc2cccs2)c(C)n1-c1ccccc1F | inconclusive: 4.61 µM [activator, full curve, poor fit]
44 | CCOC(=O)c1c(NC(=O)CN2CCN(C(=O)c3ccco3)CC2)sc2c1CCCC2 | inactive
45 | Cc1cccc(NC(=O)CSc2nnc(-c3ccccc3C)o2)c1 | inconclusive: 13 µM [activator, partial curve]
46 | N#C/C(=C\c1ccccc1)C(=O)Nc1nncs1 | inactive
47 | O=C1OC(c2ccccc2)=C/C1=C\N1CCOCC1 | inconclusive: 20.6 µM [activator, partial curve, poor fit]
48 | CCCC(=O)Nc1nnc(/C=C/c2ccccc2)s1 | inconclusive: 20.6 µM [activator, partial curve, poor fit]
49 | CCCn1cc(S(=O)(=O)c2ccc(F)cc2)c(=O)c2cc(OCC)ccc21 | inactive
50 | COc1ccc(OCCOC(=O)c2cccc(-n3cnnn3)c2)cc1 | inconclusive: 16.4 µM [activator, partial curve]

Row | SMILES | Potency
51 | C(=N\NCc1ccccc1)/c1ccc2nccnc2c1 | inconclusive: 20.6 µM [activator, single point]
52 | Fc1ccccc1/C=N/Nc1ncnc2ccccc12 | inconclusive: 2.31 µM [activator, partial curve]
53 | Cc1ccc(NC(=O)c2cc(F)c(F)cc2Cl)nc1 | inconclusive: 2.91 µM [activator, full curve, poor fit]
54 | COc1ccc2c(c1)Cc1sc(NC(=O)c3ccccc3)nc1-2 | inconclusive: 10.3 µM [activator, partial curve]
55 | COCCN1CCN(C(=O)c2cc(COc3cc(C)ccc3C)on2)CC1 | inconclusive: 18.3 µM [activator, single point]
56 | Cc1ccc(-c2csc(NC(=O)CSC3=NCCS3)n2)cc1 | inconclusive: 16.4 µM [activator, partial curve, poor fit]
57 | O=C(NC(=S)NCCc1ccccc1)c1ccccc1F | inconclusive: 18.3 µM [activator, single point]
58 | COCCN(CCOC)c1ncnc2c1cnn2-c1ccc(Cl)cc1 | active: 10.3 µM
59 | COC(=O)c1cc(S(=O)(=O)N2CCCC2=O)c(Cl)cc1Cl | inconclusive: 32.6 µM [activator, partial curve, poor fit]
60 | Cc1onc(-c2ccccc2)c1C(=O)c1c[nH]c(C(=O)NCc2ccccn2)c1 | inactive
61 | CN(C)c1ccc(C(=O)OCC(=O)NC2CCCCC2)cc1 | inconclusive: 29.1 µM [activator, single point]
62 | O=c1c2ccccc2nc(COc2ccccc2)n1/N=C/c1ccc(O)cc1O | inactive
63 | Cc1ccc2c(c1)c1c(n2C)-c2[nH]ncc2CC1 | inactive
64 | Oc1ccc(Br)cc1/C=N/Nc1ncc(-c2ccccc2)cn1 | inactive
65 | COc1ccc(-c2cc(=O)oc3cc(OCC(=O)c4cccc([N+](=O)[O-])c4)ccc23)cc1 | inconclusive: 32.6 µM [activator, partial curve, poor fit]
66 | O=C(Nc1ccccc1N1CCOCC1)c1ccc2ccccc2c1 | inactive
67 | N/C(=N\OC(=O)Cc1cccc2ccccc12)c1ccccn1 | inconclusive: 18.4 µM [activator, single point]
68 | Cc1nc(C(=O)Nc2ccccc2)sc1C(=O)Nc1ccccc1 | inactive
69 | Cc1cc(Nc2ccccc2)n(C(=O)c2ccc(N)cc2)n1 | inconclusive: 7.31 µM [activator, partial curve, poor fit]
70 | CCc1nnc(NS(=O)(=O)c2ccc(NC(=S)NC(=O)/C=C/c3ccc(F)cc3)cc2)s1 | inactive
71 | Clc1ccc(-c2noc(/C=C/c3ccccc3)n2)cc1 | inconclusive: 18.3 µM [activator, partial curve, poor fit]
72 | CC(C)(C)OC(=O)NNc1c2ccccc2nc2ccccc12 | inactive
73 | CC1=NN(C(=O)Cc2ccccc2)C(O)(c2ccccc2)C1 (stereo not given) | inconclusive: 0.259 µM [activator, single point]
74 | Cc1nc(-c2ccc(NC(=O)c3ccco3)cc2)cs1 | active: 0.206 µM
75 | COc1ccc(C(=O)Nc2ccc(Cn3ccnc3)cc2)cc1OC | inconclusive: 18.3 µM [activator, partial curve, poor fit]
